# Assay results from the supplement of paper PMC3334620.
# Whole data set: some 33,000 sequences, median “E-score (-0.5 to 0.5)” near -0.012, cut for the highest 2% near 0.29. This is one part of the list.
# Biological target: T1, Ybr033w (UniProt P38073)
# T1 sequence: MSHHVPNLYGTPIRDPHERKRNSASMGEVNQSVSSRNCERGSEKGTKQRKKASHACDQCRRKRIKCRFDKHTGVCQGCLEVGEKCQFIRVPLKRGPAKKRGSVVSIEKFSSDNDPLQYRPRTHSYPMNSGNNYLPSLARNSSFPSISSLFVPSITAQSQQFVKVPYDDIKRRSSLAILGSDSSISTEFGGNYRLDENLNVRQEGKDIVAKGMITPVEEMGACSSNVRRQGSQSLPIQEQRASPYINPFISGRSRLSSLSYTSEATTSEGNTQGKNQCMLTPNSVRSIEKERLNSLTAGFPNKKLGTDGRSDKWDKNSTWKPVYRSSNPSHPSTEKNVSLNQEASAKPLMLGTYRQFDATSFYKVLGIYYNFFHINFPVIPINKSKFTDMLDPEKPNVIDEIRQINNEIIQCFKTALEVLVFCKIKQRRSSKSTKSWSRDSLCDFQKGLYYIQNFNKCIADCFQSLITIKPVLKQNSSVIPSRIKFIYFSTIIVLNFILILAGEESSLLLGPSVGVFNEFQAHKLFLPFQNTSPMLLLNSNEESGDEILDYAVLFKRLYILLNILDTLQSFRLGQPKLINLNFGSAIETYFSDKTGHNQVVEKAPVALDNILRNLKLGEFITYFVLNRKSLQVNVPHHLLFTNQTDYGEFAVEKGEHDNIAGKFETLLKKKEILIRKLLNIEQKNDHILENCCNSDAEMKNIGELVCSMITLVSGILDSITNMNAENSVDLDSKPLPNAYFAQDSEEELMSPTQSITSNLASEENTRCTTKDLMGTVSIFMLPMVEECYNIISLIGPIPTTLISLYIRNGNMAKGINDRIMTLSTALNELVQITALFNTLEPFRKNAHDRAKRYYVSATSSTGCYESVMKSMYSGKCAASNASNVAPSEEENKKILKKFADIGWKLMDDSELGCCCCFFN
# Test: PBM E-score (8-mer binding enrichment) (E-score (-0.5 to 0.5)); higher = stronger / more preferred TF binding; most listed sequences are background and not binding sites
# Conditions: protein concentration: 200 nM; construct: GST-full length
# Outline: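 The E-score, a modified Wilcoxon-Mann-Whitney statistic, was computed by the Universal PBM Analysis Suite for every ungapped eight-base word pooled with its reverse complement. Scans behind it were normalised with masliner after bound GST-tagged yeast transcription factors were detected with fluorescent anti-GST. The proteins, at about 100-200 nM, had been applied to universal all-10-mer Agilent arrays made double-stranded by primer extension.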
row,Sequence,PBM E-score
1,CTCCTGAC,-0.0994
2,CGCTCGAC,-0.311
3,ATATCACA,0.0388
4,AAACGTAA,0.161
5,CACGGGTA,-0.158
6,CAAGGGAC,-0.164
7,AGATGGTA,0.133
8,AGCGTCTG,-0.232
9,ATCGTTCC,-0.196
10,TATTCAGA,0.0954
11,ACCCTTAG,-0.113
12,CTGCTAAA,0.00904
13,CGTGGCGC,-0.259
14,AGTTACAT,0.0786
15,GCGGGACA,-0.243
16,CCCGGACA,-0.034
17,ACACGCGA,0.00739
18,TAACGTAA,0.192
19,ATCCAGCC,-0.103
20,CTTATGTA,0.161
21,TAGATTCA,0.0876
22,CTTTTAAC,0.0274
23,CAACTAGC,0.189
24,GTGCGTCA,-0.301
25,GGTACGCA,0.0659

row,Sequence,PBM E-score
1,GTGCCGTA,0.0665
2,CGGACAGA,-0.139
3,ATTCAGAG,0.0679
4,CCGAACTA,-0.0825
5,CACGAGAC,-0.067
6,GTCGGTCA,-0.104
7,CGGGTCAC,-0.102
8,AAACGGTT,-0.134
9,ACGCCTAG,-0.052
10,AGAATCGA,0.0687
11,CGTATCAG,-0.0405
12,AAAGTCCG,-0.0892
13,ACCTCCAT,-0.216
14,CCCGTTCG,-0.125
15,AGACTGAA,-0.0303
16,AACTTGGT,0.168
17,CCACGGGG,-0.253
18,GTGAGAAA,0.07
19,CCGCCAAC,-0.0859
20,AAAGAGTT,0.146
21,AAACAACC,0.141
22,GTTAGAAA,0.00365
23,CCCGCATA,0.0871
24,GCCGTACA,0.0471
25,AGAGAGGA,-0.208

row,Sequence,PBM E-score
1,CTTAAGCA,0.0938
2,ATTTCTGC,0.216
3,AGCCAATG,-0.0132
4,ACCGTTAG,0.0369
5,CCTATTAA,0.139
6,AATATGAC,0.109
7,CAGATAAC,0.096
8,ACTCGTGG,-0.0126
9,CTCTCAGA,-0.0959
10,CCCTGCCG,-0.272
11,GAGGAGGA,-0.25
12,AATTATTG,0.274
13,ACCGGTAA,0.106
14,GTGTCGTA,-0.0564
15,AACACTAT,0.283
16,AGTGTCAC,-0.0738
17,CCGTGCAA,-0.0408
18,AGAGTAAG,0.126
19,GGATGACC,-0.217
20,TACAACTA,0.118
21,AGCAGCAC,-0.0771
22,ATGAAACA,0.142
23,CTGTCGTC,-0.0634
24,CTGCTGAA,-0.0178
25,AGGGGTCG,-0.317

row,Sequence,PBM E-score
1,GACCAGCC,-0.121
2,CAGCGTTC,-0.0989
3,GCATGGAA,0.0876
4,AATGTATA,0.27
5,GACCGAGC,-0.204
6,ACTACTCT,0.0727
7,ACTGGACA,0.0145
8,ACGTGACA,0.0317
9,AGAAACCT,0.184
10,GTCCGTCA,-0.0633
11,AGCGTCTA,-0.165
12,ACACCGAA,0.136
13,AAAATGGA,0.197
14,CTTCAAAA,0.218
15,CAGTCAGC,-0.21
16,CATGTACG,0.0783
17,GAATCGAA,0.141
18,ACTCAATA,0.234
19,GACCGACA,-0.062
20,GCAATAAC,0.0794
21,GCTTTATA,-0.119
22,AATCGTAC,0.203
23,AATAGGAC,0.0355
24,ATAGTATA,0.117
25,CTCCCTGC,-0.19

row,Sequence,PBM E-score
1,ATTGCACG,0.014
2,GAGGACGA,-0.00639
3,ACACCTCG,-0.178
4,TGATGAAA,0.183
5,GCAGGAAA,0.0701
6,AGTCTCTA,0.052
7,AATTAGTA,0.26
8,CGAAGAAC,0.145
9,CTCAGTTA,-0.0642
10,CCGGTAGC,-0.187
11,CTCTCTCC,-0.21
12,CGGTCGAG,-0.16
13,GTGCGAGA,-0.0113
14,CCCTATGA,-0.0154
15,CCATTGCG,-0.181
16,TCATTGGA,0.0341
17,CTCATTAA,0.23
18,TGAGACAA,-0.0545
19,AAGGCACT,-0.0779
20,GAACCATA,0.0918
21,CCTTGAAA,0.0714
22,ATGCGGTG,-0.157
23,ATAAGCAA,0.252
24,TGAGTACA,0.0898
25,ATGAAGAA,0.126

row,Sequence,PBM E-score
1,GCTCATAC,-0.0746
2,GAAAGCCC,-0.114
3,CTGCGGTC,-0.262
4,TATGACGA,-0.0767
5,ATCAAGCA,0.0412
6,AGTCTATG,-0.0523
7,ATCCATAG,-0.0877
8,CCTTAAAA,0.0761
9,CCAGTATA,-0.0453
10,GGCTGGTA,-0.15
11,CCGATTCC,-0.0813
12,AGTTGTGC,-0.063
13,AGGTGCAG,-0.186
14,CCATCGGG,0.0152
15,ATACTGGC,-0.227
16,AACGTGGT,-0.046
17,GATCCACC,-0.128
18,GAATTCTC,0.0948
19,AGAGCCCA,-0.155
20,AGCTTATG,0.0568
21,CTGGCAAG,-0.103
22,CAGTAGAG,-0.0987
23,ATTATCTC,0.256
24,TAAGGAAA,0.09
25,AGAGCCGG,-0.169

row,Sequence,PBM E-score
1,CGGTTCGA,-0.05
2,ATTGTTAC,0.248
3,GGTGCAAC,-0.0953
4,GAGTCGGA,0.00892
5,ACGCCGAG,-0.159
6,AGCTCGCG,0.00996
7,CACGACCG,-0.325
8,AGGACGCG,-0.202
9,AAAAGACG,-0.0341
10,ACGTCTGC,-0.185
11,ACAAGTTA,0.185
12,CCCGCCAA,-0.13
13,AGCCCAAA,0.149
14,GGCGCAAA,-0.192
15,GCCAGAGC,-0.291
16,CGGGCGGC,-0.359
17,ACAGCAGT,0.00436
18,AGAGGGAC,-0.141
19,CGTGGGTC,-0.307
20,AAACTCAA,0.201
21,CGAAGCGA,-0.0591
22,ATGTTTCC,0.0872
23,AAGTGACT,0.0868
24,CCTGGTGA,-0.157
25,CAATCTCC,0.0409

row,Sequence,PBM E-score
1,AACCCGAC,0.056
2,ACTCCACA,0.089
3,CTACTCAC,0.0231
4,ATTCGGGC,-0.0151
5,AACGGTTG,0.1
6,GAGTATAA,0.184
7,TCCCTAAA,0.0945
8,ACGAATTA,0.153
9,AGACGGAA,0.0963
10,AAAGTGAA,0.164
11,ACCTGAAT,0.239
12,CCCAATGC,-0.107
13,CCCTGGTC,-0.238
14,GTAATTTA,0.218
15,GCGCGGAC,-0.126
16,CGTTTTAA,0.0098
17,ACCAAAGG,-0.149
18,ATCGAACA,-0.0196
19,CTAACTCA,0.00653
20,CTAGATTC,0.0674
21,GCGTTCGA,-0.0586
22,ACATTTTA,0.259
23,CGGATGGC,-0.188
24,TTCATAAA,0.0849
25,GGCGACGA,-0.169

row,Sequence,PBM E-score
1,CGGGCTTC,-0.162
2,ACAGGAAC,0.152
3,AAATGCGA,0.185
4,ACGTGGCA,-0.257
5,ACCCACGG,-0.332
6,AGGTTGTA,0.132
7,CCGCCTCG,-0.0432
8,CAATTGTC,0.0927
9,ACACTACG,-0.0109
10,ATCTCGGA,-0.047
11,GCATTGTA,0.103
12,GACTTATA,0.293
13,AGTGTCGA,-0.093
14,AATGTCGA,0.197
15,GGAAGAAC,0.461
16,AGGAGTCA,0.0741
17,CGACGACA,0.0999
18,CGTTCGAG,-0.0445
19,ACCACGGC,-0.109
